Experimental data published in the CheMixHub viscosity set.
Values joined by “and” are separate entries in the source; they are usually repeats but may differ in a detail not shown here. Equal entries are not always repeated. The source gives many values for each of these; only a part stands here.

Assay: xn = mol fraction of the nth substance listed

CCOCCO + O
Conditions	viscosity [mPa·s]
298.15 K, 101 kPa, x1 = 0.0109	1.07
298.15 K, 101 kPa, x1 = 0.0249	1.316
298.15 K, 101 kPa, x1 = 0.0499	1.781
298.15 K, 101 kPa, x1 = 0.075	2.226
298.15 K, 101 kPa, x1 = 0.1007	2.616
298.15 K, 101 kPa, x1 = 0.1486	3.152
298.15 K, 101 kPa, x1 = 0.203	3.473
308.15 K, 101.33 kPa, x1 = 0.0104	0.83
308.15 K, 101.33 kPa, x1 = 0.0217	0.98
308.15 K, 101.33 kPa, x1 = 0.0341	1.12
308.15 K, 101.33 kPa, x1 = 0.0476	1.31
308.15 K, 101.33 kPa, x1 = 0.0625	1.49
308.15 K, 101.33 kPa, x1 = 0.0789	1.69
308.15 K, 101.33 kPa, x1 = 0.0972	1.88
308.15 K, 101.33 kPa, x1 = 0.1176	2.07
313.15 K, 101.33 kPa, x1 = 0.0104	0.74
313.15 K, 101.33 kPa, x1 = 0.0217	0.85
313.15 K, 101.33 kPa, x1 = 0.0341	0.97
313.15 K, 101.33 kPa, x1 = 0.0476	1.12
313.15 K, 101.33 kPa, x1 = 0.0625	1.27
313.15 K, 101.33 kPa, x1 = 0.0789	1.43
313.15 K, 101.33 kPa, x1 = 0.0972	1.58
313.15 K, 101.33 kPa, x1 = 0.1176	1.73
313.15 K, 101.33 kPa, x1 = 0.1666	1.99
313.15 K, 101.33 kPa, x1 = 0.1964	2.08
313.15 K, 101.33 kPa, x1 = 0.2307	2.17
313.15 K, 101.33 kPa, x1 = 0.2707	2.21
313.15 K, 101.33 kPa, x1 = 0.3181	2.21
313.15 K, 101.33 kPa, x1 = 0.3749	2.17
313.15 K, 101.33 kPa, x1 = 0.4443	2.09
313.15 K, 101.33 kPa, x1 = 0.6428	1.78
313.15 K, 101.33 kPa, x1 = 0.7916	1.56
318.15 K, 101.33 kPa, x1 = 0.0104	0.68
318.15 K, 101.33 kPa, x1 = 0.0217	0.78
318.15 K, 101.33 kPa, x1 = 0.0341	0.87
318.15 K, 101.33 kPa, x1 = 0.0476	0.99
318.15 K, 101.33 kPa, x1 = 0.0625	1.1
318.15 K, 101.33 kPa, x1 = 0.0789	1.23
318.15 K, 101.33 kPa, x1 = 0.1176	1.41
318.15 K, 101.33 kPa, x1 = 0.1406	1.51
318.15 K, 101.33 kPa, x1 = 0.1666	1.61
318.15 K, 101.33 kPa, x1 = 0.1964	1.68
318.15 K, 101.33 kPa, x1 = 0.2307	1.75
318.15 K, 101.33 kPa, x1 = 0.2707	1.77
318.15 K, 101.33 kPa, x1 = 0.3181	1.77
318.15 K, 101.33 kPa, x1 = 0.3749	1.75
318.15 K, 101.33 kPa, x1 = 0.4443	1.7
318.15 K, 101.33 kPa, x1 = 0.5311	1.61
318.15 K, 101.33 kPa, x1 = 0.6428	1.49

C[C@H](N)C(=O)O + O
viscosity
Conditions	293.15 K	298.15 K	303.15 K	308.15 K	313.15 K	318.15 K
100 kPa, x1 = 0.0004	–	–	0.8034 mPa·s	0.7261 mPa·s	0.6608 mPa·s	–
100 kPa, x1 = 0.0007	–	–	0.8057 mPa·s	–	0.6633 mPa·s	–
100 kPa, x1 = 0.001	–	–	0.8081 mPa·s and 0.8105 mPa·s	0.7308 mPa·s and 0.7333 mPa·s	0.6658 mPa·s	–
100 kPa, x1 = 0.0018	–	0.9055 mPa·s	0.8128 mPa·s	0.7356 mPa·s	0.6703 mPa·s	–
100 kPa, x1 = 0.0022	–	–	0.8155 mPa·s	–	0.6725 mPa·s	–
101 kPa, x1 = 9e-05	–	0.901 mPa·s	0.8083 mPa·s	–	0.666 mPa·s	–
101 kPa, x1 = 0.00018	–	–	0.8131 mPa·s	0.7348 mPa·s	0.6702 mPa·s	–
101 kPa, x1 = 0.00027	–	0.9106 mPa·s	0.8196 mPa·s	0.7317 mPa·s	0.6774 mPa·s	–
101 kPa, x1 = 0.00036	–	0.9167 mPa·s	0.8258 mPa·s	–	0.6848 mPa·s	–
101 kPa, x1 = 0.0004	–	–	0.8 mPa·s	0.722 mPa·s	0.655 mPa·s	0.599 mPa·s
101 kPa, x1 = 0.00045	1.008 mPa·s	0.8958 mPa·s	0.8024 mPa·s	0.7238 mPa·s	0.6571 mPa·s	0.6014 mPa·s
101 kPa, x1 = 0.0007	–	–	0.804 mPa·s	0.726 mPa·s	0.659 mPa·s	0.602 mPa·s
101 kPa, x1 = 0.0009	1.014 mPa·s	0.9014 mPa·s	0.8076 mPa·s	0.7287 mPa·s	0.6617 mPa·s	0.6057 mPa·s
101 kPa, x1 = 0.001	–	–	0.807 mPa·s and 0.811 mPa·s	0.729 mPa·s and 0.733 mPa·s	0.661 mPa·s and 0.664 mPa·s	0.604 mPa·s and 0.607 mPa·s
101 kPa, x1 = 0.00135	1.02 mPa·s	0.907 mPa·s	0.8128 mPa·s	0.7336 mPa·s	0.6663 mPa·s	0.61 mPa·s
101 kPa, x1 = 0.0018	–	0.9126 mPa·s	0.816 mPa·s and 0.818 mPa·s	0.736 mPa·s	0.6708 mPa·s	0.61 mPa·s and 0.6144 mPa·s
101 kPa, x1 = 0.002245	–	–	0.8233 mPa·s	0.7434 mPa·s	0.6755 mPa·s	0.6188 mPa·s
101 kPa, x1 = 0.002695	1.038 mPa·s	0.9239 mPa·s and 0.923 mPa·s	0.8286 mPa·s	0.7483 mPa·s	0.6801 mPa·s	0.6231 mPa·s
101 kPa, x1 = 0.00359	–	0.935 mPa·s	–	–	–	–
101 kPa, x1 = 0.004484	–	0.946 mPa·s	–	–	–	–
101 kPa, x1 = 0.006266	–	0.97 mPa·s	–	–	–	–

OC[C@H]1O[C@H](O[C@H]2[C@H](O)[C@@H](O)C(O)O[C@@H]2CO)[C@H](O)[C@@H](O)[C@@H]1O (stereo not given in full) + O
viscosity [mPa·s]
Conditions	293.15 K	298.15 K	303.15 K	308.15 K	313.15 K
100 kPa, x1 = 0.000179	1.019	0.9	0.807	0.721	0.657
100 kPa, x1 = 0.0005382	1.027	0.911	0.816	0.733	0.667
100 kPa, x1 = 0.0008969	1.038	0.922	0.827	0.742	0.675
100 kPa, x1 = 0.001255	1.049	0.931	0.832	0.747	0.68
100 kPa, x1 = 0.001614	1.059	0.94	0.84	0.755	0.686
101.3 kPa, x1 = 0.002	1.11	0.987	0.887	0.799	0.728
101.33 kPa, x1 = 0.00359	–	1.072	–	–	–
101.33 kPa, x1 = 0.007154	–	1.294	–	–	–
101.33 kPa, x1 = 0.01069	–	1.565	–	–	–
101.33 kPa, x1 = 0.01421	–	1.894	–	–	–
101.33 kPa, x1 = 0.0177	–	2.289	–	–	–
101.33 kPa, x1 = 0.02116	–	2.775	–	–	–
